# Test results from PMC6919601, “Identification of Plasmodium dipeptidyl aminopeptidase allosteric inhibitors by high throughput screening” (PLoS ONE, 2019).
# Out of some 110,000 compounds screened, about 230 (0.21%) showed an effect of 50% or more. This is one part of the list.
# Biological target: DPAP1 (Plasmodium falciparum, UniProt Q8IIJ9)
# Assay: primary screen, percent inhibition; read by cleavage of a fluorogenic dipeptide substrate; higher = more effect of the substance
# Parameters: species or system P. falciparum D10 trophozoite lysates; single well
# 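Note: 30 min substrate incubation versus DMSO and 10 µM JCP410 controls.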
# DPAP1, sequence (Q8IIJ9 whole entry, looked up): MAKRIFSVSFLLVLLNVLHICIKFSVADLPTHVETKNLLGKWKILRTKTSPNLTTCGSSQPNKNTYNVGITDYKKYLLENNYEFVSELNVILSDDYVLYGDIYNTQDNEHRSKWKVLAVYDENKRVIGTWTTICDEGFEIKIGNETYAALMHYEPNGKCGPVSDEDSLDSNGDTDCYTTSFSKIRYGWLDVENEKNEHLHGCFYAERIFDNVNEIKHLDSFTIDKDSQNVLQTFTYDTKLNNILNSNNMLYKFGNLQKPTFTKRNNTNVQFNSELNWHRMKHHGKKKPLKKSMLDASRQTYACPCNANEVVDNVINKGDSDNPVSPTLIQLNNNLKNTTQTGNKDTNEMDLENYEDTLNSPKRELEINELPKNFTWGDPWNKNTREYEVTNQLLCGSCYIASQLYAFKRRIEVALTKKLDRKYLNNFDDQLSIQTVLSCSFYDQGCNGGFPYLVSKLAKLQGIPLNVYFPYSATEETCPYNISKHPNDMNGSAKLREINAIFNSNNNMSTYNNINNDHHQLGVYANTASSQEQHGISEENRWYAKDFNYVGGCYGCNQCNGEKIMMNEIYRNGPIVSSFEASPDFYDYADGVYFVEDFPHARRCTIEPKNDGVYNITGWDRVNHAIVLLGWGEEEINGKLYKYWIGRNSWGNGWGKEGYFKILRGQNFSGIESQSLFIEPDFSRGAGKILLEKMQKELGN
row,SMILES,% Inhibition @ 10 uM [%]
1,CCOC(=O)N1CCN(C(=O)Cn2ncc3c4ccccc4n(Cc4ccccc4F)c3c2=O)CC1,3.2
2,CCc1cccc(CC)c1NC(=O)c1ccc(C)o1,2.03
3,CC1(C)CC(=O)c2cc(OCC(=O)NCc3ccc(F)cc3Cl)ccc2O1,-6.88
4,Cc1nc2c([N+](=O)[O-])c(Cl)c(Cl)cc2[nH]1,3.32
5,Cc1cccc(C)c1OCc1nc2c3cnn(-c4c(F)c(F)cc(F)c4F)c3ncn2n1,8.19
6,CCc1nc2cccnc2n1-c1ccc(CC(=O)NC(C)CC)cc1 (stereo not shown),0.107
7,CC(C)C(=O)Nc1cc(-c2ccccc2)no1,-1.47
8,CN1CCN(C(=O)C2CCN(C(=O)c3cnn(-c4ccccc4)c3-n3cccc3)CC2)CC1,1.8
9,CCN(C(=O)COc1ccc(Cl)cc1Cl)c1ccccc1,-5.41
10,Cn1c(CCCNC(=O)c2ccccc2)nc2ccccc21,-2.01
11,CCOC(=O)c1c(S(=O)(=O)N(C)Cc2ccco2)c(C)n(C)c1C,-2.81
12,CCCCc1ccc(NS(=O)(=O)c2ccc(Cl)cc2)cc1,-2.12
13,CCCOc1ccc(/C=C2/C(=O)ON=C2C)cc1OCC,-0.386
14,Fc1ccccc1C1CN(c2ccccc2)N=C1c1ccccc1 (stereo not shown),3.44
15,COc1cc(S(=O)(=O)N2CCN(c3cccc(C(F)(F)F)c3)CC2)c(C)cc1C,0.245
16,COc1ccc(C(=O)c2oc3ccccc3c2NC(=O)c2ccccc2)cc1,-3.06
17,Cc1cccc(NC(=O)C(C)Oc2ccccc2C)c1 (stereo not shown),-1.42
18,COc1ccccc1C(=O)NC(C)c1cc2c(cc1Cl)OCCO2 (stereo not shown),-0.251
19,O=C(CSCc1cnn(-c2ccccc2)c1-n1cccc1)N1CCC(N2CCCCC2)CC1,-2.85
20,Cc1nc(Nc2nc(C)c3ccccc3n2)nc(O)c1Cc1ccccc1,-0.545
21,CN(CCCNC(=O)C1CCN(c2ncnc3c2nc2n3CCCCC2)CC1)Cc1ccccc1,0.244
22,C=CCCC(C)(C#CCN1CCCCC1)OC(C)=O (stereo not shown),-2.54
23,CCCCCC(=O)Nc1nc2c(C)cccc2s1,2.01
24,Cc1sc2[nH]c(=S)n(-c3ccc(Cl)cc3)c(=O)c2c1C,51.2
25,Cn1nccc1C(=O)Nc1ccn(Cc2c(F)c(F)cc(F)c2F)n1,-7.55
26,O=C(CC(c1ccccc1)c1c(O)c2ccccc2oc1=O)c1ccc(-c2ccc(Br)cc2)cc1 (stereo not shown),0.132
27,COc1ccc(Nc2oc(COc3ccccc3OC)nc2C#N)cc1,3.62
28,Cc1ccc(OCCCc2c(C)n[nH]c2C)cc1,6.53
